No constants are given. Whether binding was seen depends on the method and setting. In cells and extracts the contact can be indirect. Some entries that bind do so weakly or less than the wild type. For part of these data: Sequences can lack the tags named with a protein. Each block holds one substance with its values, some of them ahead of it.
Experiments:
[1] = target: T1, GI-HA (transient expression in N. benthamiana) (Arabidopsis) (UniProt Q9SQI2); experiment: co-IP; transient co-expression of ZTL-LUC variants with GI-HA in N. benthamiana; antibodies not told
T1 sequence: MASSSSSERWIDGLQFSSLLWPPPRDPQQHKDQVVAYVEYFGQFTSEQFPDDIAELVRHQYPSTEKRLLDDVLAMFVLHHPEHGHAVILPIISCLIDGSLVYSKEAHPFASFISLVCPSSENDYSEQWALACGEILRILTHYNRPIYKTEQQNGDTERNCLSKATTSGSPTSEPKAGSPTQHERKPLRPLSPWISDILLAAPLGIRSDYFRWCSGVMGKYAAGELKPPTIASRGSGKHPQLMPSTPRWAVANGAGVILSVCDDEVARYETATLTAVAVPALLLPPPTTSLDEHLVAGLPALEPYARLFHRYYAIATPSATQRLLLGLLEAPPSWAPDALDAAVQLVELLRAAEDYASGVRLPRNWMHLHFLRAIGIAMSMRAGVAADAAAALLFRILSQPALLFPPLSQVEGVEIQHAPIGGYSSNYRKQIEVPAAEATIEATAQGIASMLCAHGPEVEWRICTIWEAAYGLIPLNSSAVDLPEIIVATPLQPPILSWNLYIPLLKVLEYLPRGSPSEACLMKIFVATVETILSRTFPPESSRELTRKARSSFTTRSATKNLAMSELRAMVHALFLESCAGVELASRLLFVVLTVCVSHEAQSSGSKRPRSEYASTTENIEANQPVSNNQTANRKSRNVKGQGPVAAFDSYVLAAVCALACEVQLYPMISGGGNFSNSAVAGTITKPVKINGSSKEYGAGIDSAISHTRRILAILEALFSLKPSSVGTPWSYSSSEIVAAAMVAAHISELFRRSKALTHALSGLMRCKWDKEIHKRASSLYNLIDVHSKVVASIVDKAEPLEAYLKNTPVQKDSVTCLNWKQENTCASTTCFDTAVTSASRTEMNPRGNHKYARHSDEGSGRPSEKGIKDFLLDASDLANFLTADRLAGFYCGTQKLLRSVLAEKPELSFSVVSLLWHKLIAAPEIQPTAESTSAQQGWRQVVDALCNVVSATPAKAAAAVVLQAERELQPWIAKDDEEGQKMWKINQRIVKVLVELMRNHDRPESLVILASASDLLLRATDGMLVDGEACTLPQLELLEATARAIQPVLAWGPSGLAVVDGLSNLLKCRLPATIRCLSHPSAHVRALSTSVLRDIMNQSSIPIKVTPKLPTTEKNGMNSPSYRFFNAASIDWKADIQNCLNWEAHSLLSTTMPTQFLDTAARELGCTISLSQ

By UniProt entry, the sequences of proteins in these tests, tags left out.
UniProt Q94BT6: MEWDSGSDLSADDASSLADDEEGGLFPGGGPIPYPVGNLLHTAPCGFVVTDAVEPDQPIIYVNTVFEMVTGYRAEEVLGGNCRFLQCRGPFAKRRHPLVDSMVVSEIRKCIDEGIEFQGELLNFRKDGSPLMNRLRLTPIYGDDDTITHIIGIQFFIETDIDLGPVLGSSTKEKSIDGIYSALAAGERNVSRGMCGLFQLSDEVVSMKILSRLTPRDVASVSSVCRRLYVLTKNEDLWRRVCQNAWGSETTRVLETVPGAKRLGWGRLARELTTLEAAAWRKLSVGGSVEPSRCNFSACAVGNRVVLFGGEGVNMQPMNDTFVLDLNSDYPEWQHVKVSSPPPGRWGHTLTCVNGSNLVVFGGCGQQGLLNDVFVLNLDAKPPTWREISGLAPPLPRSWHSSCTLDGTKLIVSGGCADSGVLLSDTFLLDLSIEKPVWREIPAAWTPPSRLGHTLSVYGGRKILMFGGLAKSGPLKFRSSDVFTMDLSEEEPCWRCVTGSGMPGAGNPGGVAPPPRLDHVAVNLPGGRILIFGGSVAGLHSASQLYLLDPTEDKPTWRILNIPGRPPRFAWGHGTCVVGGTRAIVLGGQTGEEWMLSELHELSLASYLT

[2] = target: T2, GI-TAP (GI:GI-TAP transgenic Arabidopsis) (Arabidopsis) (UniProt Q9SQI2); experiment: co-IP; 10-d-old GI:GI-TAP Arabidopsis seedlings harvested at ZT13, in vivo protein cross-linking; IP with anti-PAP antibody, blots with anti-HSP90, anti-ZTL and anti-PAP; untransformed Col as control
T2 sequence: T1 sequence

[3] = target: T3, GI-TAP (35S:GI-TAP, N. benthamiana) (Arabidopsis) (UniProt Q9SQI2); experiment: co-IP; sequential co-IP from N. benthamiana co-expressing GI-TAP, HSP90-HA and ZTL-GFP: first IP on IgG-agarose (GI-TAP), release with 3C protease, second IP with anti-GFP (ZTL-GFP), detection of HSP90-HA
T3 sequence: T1 sequence

[4] = target: T4, HA-GI^N (GI N-terminal polypeptide, aa 1-858) (Arabidopsis) (UniProt Q9SQI2); experiment: co-IP; HA-tagged GI FL, GI^N or GI^C co-infiltrated with GFP-tagged ZTL WT or ZTL^C82A into N. benthamiana leaves; IP with HA antibody (3F10), blots with anti-HA and anti-GFP
T4 sequence: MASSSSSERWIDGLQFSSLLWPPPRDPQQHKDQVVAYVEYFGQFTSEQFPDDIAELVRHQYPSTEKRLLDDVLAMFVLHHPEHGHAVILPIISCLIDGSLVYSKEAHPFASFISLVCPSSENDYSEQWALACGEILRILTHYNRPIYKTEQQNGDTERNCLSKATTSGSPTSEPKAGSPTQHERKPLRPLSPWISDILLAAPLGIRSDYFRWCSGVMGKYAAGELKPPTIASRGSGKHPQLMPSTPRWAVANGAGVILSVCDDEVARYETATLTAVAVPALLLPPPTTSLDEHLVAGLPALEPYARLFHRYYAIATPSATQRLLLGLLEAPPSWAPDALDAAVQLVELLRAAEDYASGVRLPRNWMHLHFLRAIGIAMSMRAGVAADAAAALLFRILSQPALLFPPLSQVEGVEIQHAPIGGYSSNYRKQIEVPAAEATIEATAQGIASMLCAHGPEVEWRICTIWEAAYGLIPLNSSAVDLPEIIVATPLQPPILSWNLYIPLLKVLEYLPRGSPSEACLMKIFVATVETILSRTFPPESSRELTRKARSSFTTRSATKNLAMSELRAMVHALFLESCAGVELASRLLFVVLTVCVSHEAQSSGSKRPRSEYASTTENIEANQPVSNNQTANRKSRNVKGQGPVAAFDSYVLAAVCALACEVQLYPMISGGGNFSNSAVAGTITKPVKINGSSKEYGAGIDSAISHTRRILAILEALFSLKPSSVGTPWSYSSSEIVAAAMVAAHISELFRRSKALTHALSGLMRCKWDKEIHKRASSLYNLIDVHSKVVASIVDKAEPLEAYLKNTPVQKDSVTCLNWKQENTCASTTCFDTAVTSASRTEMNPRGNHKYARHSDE

[5] = target: T5, HA-GI^C (C-terminal region of GI, aa 920-1173) (Arabidopsis) (UniProt Q9SQI2); experiment: as above
T5 sequence: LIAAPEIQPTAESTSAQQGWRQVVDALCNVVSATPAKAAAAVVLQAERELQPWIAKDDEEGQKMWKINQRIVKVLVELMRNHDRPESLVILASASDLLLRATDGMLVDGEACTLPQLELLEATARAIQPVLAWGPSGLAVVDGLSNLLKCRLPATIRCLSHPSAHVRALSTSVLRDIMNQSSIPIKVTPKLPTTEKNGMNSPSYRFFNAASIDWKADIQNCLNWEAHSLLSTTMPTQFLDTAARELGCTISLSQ

[6] = target: T6, HA-tagged GI full length (FL) (Arabidopsis) (UniProt Q9SQI2); experiment: as above
T6 sequence: T1 sequence

- binding [1]: binds
Substance: ZTL^WT-LUC (from UniProt Q94BT6 1-609)

- binding [2]: binds
Substance: endogenous ZTL (Arabidopsis) (from UniProt Q94BT6 1-609)

- binding [3]: binds
- binding [4]: binds
- binding [5]: no binding
- binding [6]: binds
Substance: ZTL-GFP (from UniProt Q94BT6 1-609)

Reference: paper PMC5431898
